Over roughly 13,000 compounds, “IFI” has its median near 4; the highest 2% begin near 17. Some of the results follow.
Test: GSK_TCMDC: Inhibition Frequency Index (IFI). The number of non-kinase HTS assays where a compound showed > 50 % inhibition, expressed as a percentage of the number of such assays in which the compound was tested (-0 is zero)
Format: functional
`COc1cc(Cc2cnc(N)nc2N)cc(OCCCCc2nnn[nH]2)c1OC` gave an IFI of -0%.
With `CCn1c(-c2nonc2N)nc2c(-c3cc4ccccc4s3)ncc(C(=O)N3CCC(N)C3)c21` (stereo not given) the IFI was 10.2%.
`COc1cc2c(cc1C(F)(F)F)N(C(=O)Nc1cc(F)c(F)c(-c3cccnc3)c1)CC2` showed an IFI of 1.47%.
`N=C(N)c1ccc2[nH]c(-c3cc4cc(C(=N)N)ccc4o3)cc2c1` gave an IFI of 3.7%.
`CCCN(CCC)C(C)CCC(C)Nc1c2ccc(Cl)cc2nc2ccc(OC)cc12` (stereo not given) showed an IFI of 2.96%.
Work on `COc1ccc2nc3cc(Cl)ccc3c(NCCCCN3CCNCC3)c2c1` yielded an IFI of 7.53%.
For `Nc1ccnc2ccc(NC(=O)CCCCCc3ccccc3)cc12`, the IFI was 3.57%.
`O=C(/C=C/c1ccccc1Cl)Nc1ccc(Br)c(OCCN2CCCCC2)c1` gave an IFI of 5.52%.
In the case of `Oc1ccc(-c2ccccc2)cc1CN1CCCCC1`, the IFI is reported as 0.75%.
`N#Cc1ccc(-c2ccc(C(=O)Nc3ccc4c(c3)CCN(C3CCC3)CC4)nc2)cn1` gave an IFI of 2.19%.
With `COc1cc(C(=O)N2CCOC(CCN3CCC4c5ccccc5CC43)(c3ccc(Cl)c(Cl)c3)C2)cc(OC)c1OC` (stereo not given) the IFI was 4.96%.
`CC(C)(C)N1CCC(N(Cc2ccc(-c3ccc(C(F)(F)F)cc3)cc2)C(=O)Cn2c(CCc3cccc(F)c3F)cc(=O)c3cccnc32)CC1` gave an IFI of 14.2%.
In the case of `COc1cc(C(=O)N2CCN(C(C)C)CC2)ccc1CN(C)CCCCN1CCN(c2cccc(Cl)c2Cl)CC1`, the IFI is reported as 14.5%.
Work on `O=C(Nc1ccccc1N1CCOCC1)c1ncoc1-c1ccccc1C(F)(F)F` yielded an IFI of 3.57%.
Work on `OC(CNCc1cccc(Oc2ccc(Cl)cc2)c1)c1cccc(C(F)(F)F)c1` (stereo not given) yielded an IFI of 3.45%.
In the case of `Cc1ccccc1Nc1nc(NCc2ccccc2)nc2ccccc12`, the IFI is reported as 8.7%.
With `OCCN1CCN(Cc2ccc(-c3cccc(-c4nc5ccccc5[nH]4)c3)cc2)CC1` the IFI was 2.88%.
Work on `N#Cc1cccc(-c2ccc(C(=O)Nc3ccc4c(c3)CCN(C3CCC3)CC4)cn2)c1` yielded an IFI of 2.27%.
For `CCSc1ccc(C)cc1CON1C(N)=NC(N)=NC1(C)C`, the IFI was 6.34%.
Compound `COc1ccc2nc(C)cc(NCc3cccc4ccccc34)c2c1` has an IFI of 1.46%.
In the case of `CCCC(=O)Nc1ccc(Nc2nc(C)cc(N3CCCC3)n2)cc1`, the IFI is reported as 2.38%.
Work on `Cc1ccc(C2CCN(CCCCNC(=O)c3ccc(-c4ccc(C(F)(F)F)cc4)cc3)CC2)c(O)c1` yielded an IFI of 10.3%.
With `O=C(Nc1ccc(F)c(Cl)c1)c1cc([N+](=O)[O-])cc2cn[nH]c12` the IFI was 5.88%.
`Cc1[nH]c2ccc(C#N)cc2c(=O)c1Br` gave an IFI of -0%.
`CC(C)[C@@H](NC(=O)NC1CCC(CCN2C3CCC2CC(OC(=O)C(CO)c2ccccc2)C3)CC1)C(O)(c1ccccc1)c1ccccc1` (stereo not given in full) gave an IFI of 7.07%.
In the case of `CC(C)(C)c1cc2cc(Nc3ccnc4cc(-c5nccs5)ccc34)ccc2[nH]1`, the IFI is reported as 4.41%.
Work on `CC(C)(NCc1ccc(OC(F)(F)F)cc1)c1nc(-c2ccc(Cl)c(O)c2)c(-c2ccncc2)[nH]1` yielded an IFI of 6.38%.
With `Cc1cc(N[C@@H](Cc2ccccc2)C(=O)Nc2ccccc2)nc(Nc2ccccc2)n1` the IFI was 4.65%.
Compound `CC(C)C(=O)n1ncc2c3c(N)nc(N)nc3ccc21` has an IFI of 0%.
Work on `Cn1cnc(CCNC(=O)c2ccc(-c3cccc(-c4nc5cc(C(F)(F)F)ccc5[nH]4)c3)cc2)c1` yielded an IFI of 3.77%.
Work on `CCN(CC)CCCC(C)Nc1nc(C=Cc2ccc(Br)cc2)nc2cc(Cl)ccc12` (stereo not given) yielded an IFI of 3.65%.
In the case of `CN(Cc1cccc(O)c1)C1CCN(c2cc(NC(=O)c3ccc(F)cc3)ccn2)CC1`, the IFI is reported as 0%.
`CN(C)Cc1ccc(-c2ccc3c(Nc4ccc(Oc5ccccc5)cc4)ccnc3c2)o1` showed an IFI of 7.19%.
In the case of `COc1cc(Nc2nccn3c(-c4ccsc4)cnc23)cc(OC)c1OC`, the IFI is reported as 10%.
`Cc1onc(-c2ccccc2)c1C(=O)Nc1nc(-c2ccccn2)nc2ccsc12` gave an IFI of 7.63%.
In the case of `Cc1cccc2nc(-c3cccc(-c4cccc(NC(=O)c5cncn5C)c4)c3)[nH]c12`, the IFI is reported as 1.79%.
Compound `CN(C)c1ccc2c(c1)Sc1cc(N(C)C)ccc1N2C(=O)c1cccc(C(=O)O)c1` has an IFI of 3.68%.
`CC(C)(C)c1cc(C(=O)Nc2ccc(C(=N)N)cc2)c(O)c(C(C)(C)C)c1` gave an IFI of 11.4%.
Compound `Cc1ccc2[nH]c(-c3cc(-c4cccc(CCN5CCOCC5)c4)cnc3N)nc2c1` has an IFI of 6.67%.
With `CC(C)N1CCN(C(CN2CCN(CCCOc3cccc(-c4ccccc4)c3)CC2)c2ccc(F)cc2)CC1` (stereo not given) the IFI was 16%.
For `O=C(Nc1ccc(C(F)(F)F)cc1)c1ccc(NCCCN2CCCCCC2)c([N+](=O)[O-])c1`, the IFI was 6.47%.
Compound `CC(=O)C=C1CC(=O)N(C[C@@H](O)[C@H]2O[C@@H]3OC(C)(C)O[C@@H]3[C@H]2O)c2ccccc2N1` has an IFI of -0%.
`CN(CCCCNC(=O)/C=C/c1ccccc1)C1CC2(CCN(C(=O)OC(C)(C)C)CC2)c2ccccc21` (stereo not given) gave an IFI of 3.08%.
With `Fc1ccc(CNc2ncc(-c3ccsc3)c(-c3nccs3)n2)cc1` the IFI was 6.74%.
`O=C(/C=C/c1ccc(Cl)c(Cl)c1)N1CCC(C(O)CN2CCC(c3c[nH]c4ccccc34)CC2)CC1` (stereo not given) showed an IFI of 9.38%.
`Cc1cnc(N2CCN(CCCN3CCCC3)CC2)nc1Oc1ccc(-n2ccnc2)cc1` showed an IFI of 2.86%.
`O=C(Nc1cc(F)cc(F)c1)N[C@H]1CCN(CCCCCNC(=O)C2CC2c2ccc(Cl)c(Cl)c2)C1` (stereo not given in full) gave an IFI of 13.6%.
`COc1ccccc1C1CCN(Cc2csc(NC(=O)c3ccc(-c4ccc(C(F)(F)F)cc4)cc3)n2)CC1` showed an IFI of 8.55%.
For `O=C(Nc1cc(C(F)(F)F)cc(C(F)(F)F)c1)c1cc(C(F)(F)F)cc(C(F)(F)F)c1`, the IFI was 3.65%.
`N#CCCN1CCN(Cc2ccc(-c3ccc(-c4nc5cc(F)ccc5[nH]4)s3)cc2)CC1` gave an IFI of 6.94%.
For `CCc1nc(N)nc(N)c1-c1ccc(C(C)C)cc1`, the IFI was 2.29%.
Compound `c1ccc(Oc2ccc(Nc3ccnc4c(-c5ccccn5)cccc34)cc2)cc1` has an IFI of 5.88%.
With `O=C(Nc1ccc(-c2ccccc2)s1)N[C@H]1CCN(Cc2ccc(OCCCN3CCCCC3)cc2)C1` the IFI was 7.14%.
`Cc1cc2cc(NC(=O)Nc3ccnc4ccccc34)ccc2n1C` gave an IFI of 8.27%.
With `COc1ccc(S(=O)(=O)NCCC2CCN(CCCCCNC(=O)C=Cc3ccc(Cl)c(Cl)c3)CC2)cc1` the IFI was 5.07%.
Work on `CC1CCc2c(C(=O)Nc3c(F)cc(F)cc3Br)csc2C1` (stereo not given) yielded an IFI of 5.71%.
Compound `FC(F)(F)c1ccc2c(NN=Cc3cccc(Cl)c3)ccnc2c1` has an IFI of 1.45%.
Compound `c1cc(CNCc2ccc3c(c2)OCO3)cc(-c2cccc(CNc3ccc4ncccc4c3)c2)c1` has an IFI of 5.07%.
For `CCN(CC)CCN(Cc1ccc(-c2ccc(C(F)(F)F)cc2)cc1)C(=O)c1ccc(-c2ccc(NC(=O)OC)cc2C)cc1`, the IFI was 11%.
`Cc1cccc2nc(-c3cccc(-c4ccc(NC(=O)NCc5cccc(F)c5)cc4)c3)[nH]c12` gave an IFI of 9%.
Compound `Fc1ccc2[nH]c(-c3ccc(-c4ccc(CNCCc5ccncc5)cc4)cc3)nc2c1` has an IFI of 11%.
With `Cc1sc2ccc(Cl)cc2c1S(=O)(=O)Nc1ccc2nccc(N3CC(C)NC(C)C3)c2c1` (stereo not given) the IFI was 2.22%.
For `CN(C)c1ccc(-c2csc(C(=O)NC3CCCCN(CCC(C)(C)C)C3)c2)cc1` (stereo not given), the IFI was 10.6%.
Work on `NCCCCc1c(-c2ccc(Cl)c(Cl)c2)[nH]c2ccc(Cl)cc12` yielded an IFI of 9.09%.
`Cc1cc(C2CCN(CCCCNC(=O)c3ccc(NC(=O)c4ccc(Cl)cc4)cc3)CC2)c(C)cc1OCc1cccnc1` showed an IFI of 3.03%.
With `COc1ccc2[nH]ccc(=NN=Cc3ccc(N(C)C)cc3)c2c1` the IFI was 4.29%.
Work on `CNC(=O)c1cnc(Nc2ccc(N3CCN(C)CC3)cc2)nc1Nc1cccc(OC(C)C)c1` yielded an IFI of 4.48%.
For `CC(Cc1ccc(COc2ccc(CC(CO)NCCc3cccc(Cl)c3)cc2)cc1)NCCc1cccc(Cl)c1` (stereo not given), the IFI was 16.6%.
`CC(C)(C)CC(C)(C)c1ccc(O)c(C(=O)Nc2ccc([N+](=O)[O-])cc2)c1` showed an IFI of 14.1%.
Work on `Cc1cccc2nc(-c3cccc(-c4cccc(NC(=O)C(C)CN5CCN(C)CC5)c4)c3)[nH]c12` (stereo not given) yielded an IFI of 0.93%.
`Cn1ccc(-c2cccc(Nc3ccnc4cc(-c5nccs5)ccc34)c2)n1` showed an IFI of 8.57%.
`CCN(CC)CCNC(=O)c1ccc(NC(=O)c2cc(-c3ccncc3)nc3ccccc23)cc1` gave an IFI of 0%.
For `O=C(Nc1cccc(-c2ccc(-c3nc4cc(F)ccc4[nH]3)s2)c1)c1cccnc1`, the IFI was 3.74%.
With `Oc1cc(-c2cccc(C(F)(F)F)c2)nc(Nc2ccc(Cl)c(Cl)c2)n1` the IFI was 9.41%.
`O=C(N[C@@H](CC1CCCCC1)C(=O)NC1CCCCCC1)c1ccc(O)c(-c2ccc(Cl)c(Cl)c2)c1` showed an IFI of 1.48%.
For `Cc1cccc2nc(-c3ccc(-c4cccc(NC(=O)c5cncn5C)c4)cc3)[nH]c12`, the IFI was 3.6%.
For `Cc1ccccc1-c1cc(=O)c2cc(NC(=O)c3cccs3)ccc2o1`, the IFI was 2.13%.
For `O=C(Nc1ccnc(N2CC3CC2CN3Cc2cccc(O)c2)c1)c1ccc(F)cc1` (stereo not given), the IFI was 2.7%.
Work on `COc1ccccc1-c1cccc(-c2cccc(NC(=O)c3ccc([N+](=O)[O-])o3)c2)n1` yielded an IFI of 11.9%.
For `CN1CCC(C(=O)N(Cc2ccc(-c3ccc(CNCCc4ccc(S(C)(=O)=O)cc4)cn3)cc2)C2Cc3ccccc3C2)CC1`, the IFI was 5.48%.
`Cc1cc(Nc2ccc(C(C)(C)C)cc2)c2[nH]ncc2n1` showed an IFI of 9.93%.
With `C=CC[C@H](C[C@H](O)[C@H](Cc1ccccc1)NC(=O)c1ccc(-n2cccn2)cc1)C(=O)NC1CCCCC1` the IFI was 0.75%.
Compound `O=C(NCc1ccc(Cl)c(Cl)c1)[C@H]1CNCCN1C(=O)c1ccccc1` has an IFI of -0%.
With `CC1CN(c2ccc3occ(C(=O)Nc4ccc(-c5ccncc5)c(Cl)c4)c3c2)CC(C)N1C` (stereo not given) the IFI was 4.86%.
Compound `COc1ccc2[nH]c(/C=C/c3cccc4ccc(C)nc34)nc2c1` has an IFI of 6.42%.
Work on `CC1(C)N=C(N)N=C(N)N1c1ccc(Br)cc1` yielded an IFI of 1.42%.
In the case of `CCCOc1ccc(CCNCCCCNCCc2ccc(OCCC)c3ccccc23)c2ccccc12`, the IFI is reported as 12.5%.
For `CCOC(=O)c1c(NC(=O)c2ccccc2)sc2c(O)c(CNC3CCCCC3)ccc12`, the IFI was 1.46%.
In the case of `CCOC(=O)c1ccc(NC(=O)N[C@@H](Cc2ccccc2)C(=O)NC2CCN(Cc3ccc(O)cc3)C2)cc1` (stereo not given in full), the IFI is reported as 4.41%.
`COc1ccc(Nc2nc(N/N=C/c3cc(Br)ccc3O)nc(Nc3ccc([N+](=O)[O-])cc3)n2)cc1` showed an IFI of 3.01%.
